Measured values as given in publication PMC4336329 (PLoS ONE, 2015).
Among all 310,000 compounds or so, about 2,200 (0.71%) showed an effect of 50% or more. Effects have a minus sign here. The list shows a part of the results.

target: human ether-à-go-go-related gene (hERG) potassium channel (human, UniProt Q12809); assay: primary screen, population patch clamp on CHO cells stably expressing hERG
Sequence (Q12809 whole entry, looked up): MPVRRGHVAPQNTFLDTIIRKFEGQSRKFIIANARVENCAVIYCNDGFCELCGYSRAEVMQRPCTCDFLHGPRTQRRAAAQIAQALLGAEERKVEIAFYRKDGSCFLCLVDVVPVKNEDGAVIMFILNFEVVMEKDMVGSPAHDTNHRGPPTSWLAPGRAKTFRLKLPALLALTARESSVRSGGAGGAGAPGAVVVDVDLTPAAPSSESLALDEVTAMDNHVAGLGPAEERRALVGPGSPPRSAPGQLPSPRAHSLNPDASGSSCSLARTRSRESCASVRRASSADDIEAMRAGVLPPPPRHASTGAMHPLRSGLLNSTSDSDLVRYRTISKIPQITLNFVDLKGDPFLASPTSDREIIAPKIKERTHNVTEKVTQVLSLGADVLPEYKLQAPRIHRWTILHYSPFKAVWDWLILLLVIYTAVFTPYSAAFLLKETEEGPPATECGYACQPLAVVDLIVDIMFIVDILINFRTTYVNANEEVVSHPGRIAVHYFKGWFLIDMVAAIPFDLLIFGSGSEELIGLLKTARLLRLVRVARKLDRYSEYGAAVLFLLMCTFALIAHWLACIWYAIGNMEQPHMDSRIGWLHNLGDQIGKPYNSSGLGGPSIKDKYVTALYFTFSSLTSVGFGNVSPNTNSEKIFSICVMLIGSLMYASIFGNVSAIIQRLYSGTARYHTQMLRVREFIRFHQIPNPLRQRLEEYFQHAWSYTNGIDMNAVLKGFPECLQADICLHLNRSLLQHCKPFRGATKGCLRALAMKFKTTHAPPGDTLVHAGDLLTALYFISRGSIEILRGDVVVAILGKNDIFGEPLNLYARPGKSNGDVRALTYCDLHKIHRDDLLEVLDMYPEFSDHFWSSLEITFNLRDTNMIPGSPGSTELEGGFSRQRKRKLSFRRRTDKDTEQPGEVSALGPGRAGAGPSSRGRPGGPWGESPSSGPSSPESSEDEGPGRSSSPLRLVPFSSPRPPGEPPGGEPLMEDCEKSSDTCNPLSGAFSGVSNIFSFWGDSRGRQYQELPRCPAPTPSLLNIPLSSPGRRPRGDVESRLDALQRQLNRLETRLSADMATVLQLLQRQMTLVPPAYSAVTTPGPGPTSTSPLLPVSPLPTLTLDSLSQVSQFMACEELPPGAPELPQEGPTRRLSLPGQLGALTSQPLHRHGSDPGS

SMILES	hERG current change (%, negative = inhibition) at 1uM [%]
CS(=O)(=O)N(CC(=O)Nc1ccc(S(=O)(=O)N2CCOCC2)cc1)c1ccccc1Br	14.5
Cc1cccc(N2CCN(C(=O)CCCCCn3c(=S)[nH]c4ccc(N5CCOCC5)cc4c3=O)CC2)c1C	26.9
O=C(Nc1ccc(F)cc1)C1CCCN1S(=O)(=O)c1ccc(Br)cc1 (stereo not shown)	7.19
Cc1ccc(S(=O)(=O)N2CCN(c3ncccn3)CC2)cc1C	16.5
O=C(N1CCOCC1)N1CCN(c2ccccn2)CC1	-0.0091
O=C(Nc1cccc(Cl)c1)c1cncn1-c1ccc(F)cc1	-52.8
Cc1cc(C(=O)N2CCC(Cc3ccccc3)CC2)c(C)o1	-1.41
Cc1ccc(O)c(C(CC(=O)NCc2cccnc2)c2ccccc2)c1 (stereo not shown)	1.99
Cc1[nH]c2ccccc2c1C(=O)C(C)OC(=O)C1CCC1 (stereo not shown)	-12
COc1ccc(N2CCN(CC(O)COc3cc(C)ccc3C)CC2)cc1.Cl (stereo not shown)	-9.86
CC(=O)Nc1c(N)c2ccccc2oc1=O	12.6
O=C(CSc1nnc(CN2CCOCC2)n1-c1ccc(Cl)cc1)Nc1cc(Cl)ccc1O	7.12
Cc1ncc(CO)c2cc(C(=O)Nc3ccccc3Cl)c(=Nc3cccc(C(N)=O)c3)oc12	5.45
CCOC(=O)/C=C/C(=O)Nc1ccc(-c2nnc3n2CCCCC3)cc1	11.7
O=S1(=O)N[C@@H](CC2=CCCCC2)C2CCCCC2O1 (stereo partly shown)	11.3
Cc1csc(NC(=O)Nc2ccccc2[N+](=O)[O-])n1	11.8
Cc1nc(C(=O)NC2CC2)sc1C1(C)CC(c2ccccc2)=NO1 (stereo not shown)	1.73
COCC1CCCN(Cc2nc(-c3ccc4c(c3)OCO4)no2)C1 (stereo not shown)	0.195
COc1ccc(N(C(C)=O)C2C=CS(=O)(=O)C2)c(OC)c1 (stereo not shown)	15.6
CN(C)CCNC(=O)Nc1ccc(F)cc1F	20.7

SMILES	hERG current change (%, negative = inhibition) at 1uM [%]
COC(=O)c1cc(S(=O)(=O)NCc2ccc(F)cc2)cn1C	3.53
CCOC(=O)c1cccc(C(=O)Oc2ccccc2)n1	15.2
CCCn1c(CNS(=O)(=O)c2ccc(C)cc2)nc2ccccc21	-5.34
CNC(=O)c1nn(-c2ccccc2)ccc1=O	1.56
O=C1CCC[C@H]2c3[nH]c4ccccc4c3CCN12	5.85
COC(=O)c1ccc([C@H]2CC(=O)O2)cc1	8.35
COc1ccc(NC(=O)COC(=O)C2CC(=O)N(Cc3ccc(C)cc3)C2)cc1 (stereo not shown)	9.44
CCOC(=O)C1CCN(S(=O)(=O)c2ccc3[nH]c4c(c3c2)CCCC4)CC1	17.4
CCCOc1ccc(/C(O)=C2/C(=O)C(=O)N(c3cc(C)on3)C2c2ccc(C(=O)OC)cc2)cc1 (stereo not shown)	9.44
COc1ccc(NC(=O)CCc2nnc3ccc(NCc4ccco4)nn23)cc1OC	6.63
COc1cc(NS(=O)(=O)c2cn(C)cn2)cc(OC)c1	10.5
C/C(=N\NC(=O)c1cc(C(C)(C)C)[nH]n1)C12CC3CC(CC(C3)C1)C2	9.14
Cc1sc2nc(C)n(/N=C/N(C)C)c(=O)c2c1C	13.1
C/C(=N\OCC(=O)Nc1c(C)cc(C)cc1C)c1ccc2c(c1)OCCO2	16.4
COc1cccc(N2CCN(C(=O)C3CCC(=O)N(C4CCCCCC4)C3)CC2)c1 (stereo not shown)	3.41
O=C(O)c1ccc(N/N=C/c2ccc(F)c(F)c2)cc1.O=S(=O)(O)O	11.8
COC(=O)c1cccc(S(=O)(=O)N2CCN(c3nc4ccccc4s3)CC2)c1	17.5
S=C(NN=C1C2CC3CC(C2)CC1C3)Nc1ccccc1	11.9
CC(C)Cc1nnc(NC(=O)CN2C(=O)NC3(CCCCC3)C2=O)s1	4.58
O=C(O)/C=C/C(=O)N1CCN(Cc2ccc3c(c2)OCO3)CC1	17.7

SMILES	hERG current change (%, negative = inhibition) at 1uM [%]
C=CCNC(=S)/C(=C(\[O-])c1ccc(Cl)cc1)[n+]1ccccc1	11.2
N#Cc1cc2c([nH]c1=S)CCCC2	11.1
CSCC[C@H](NC(=O)OC(C)(C)C)C(=O)N/N=C/c1ccc2nccnc2c1	2.34
NC(=O)c1ccsc1NC(=O)COC(=O)c1ccc([N+](=O)[O-])o1	-4.73
O=C(CCS(=O)(=O)Cc1ccccc1F)NCCc1ccc(Cl)cc1	5.86
Cc1cccc(N2CCN(C(=S)NCc3ccco3)CC2)c1C	11.3
COc1cccc(C(=O)Nc2ccc(C(F)(F)F)n(C)c2=O)c1	3.46
Cl.Oc1cccc(Nc2c3ccccc3nc3ccccc23)c1	-1.24
O=C(Nc1ccc(Br)cc1)c1ccc(N2C(=O)C3CCCCC3C2=O)cc1 (stereo not shown)	-0.16
CCCCn1nnnc1SCC(=O)Nc1ccc2c(c1)OCCO2	14.9
O=C1CN(c2ccc(Cl)cc2)C2(CCCCC2)S1	16.6
CCN(CC)CCCN(Cc1cc2cc3c(cc2[nH]c1=O)OCO3)C(=S)NC	13.2
COc1ccc(NC(=O)c2ccccc2NC(=O)C2CC=CCC2C(=O)O)cc1 (stereo not shown)	14.8
Cl.O=C(NC1CCN(Cc2ccccc2)CC1)c1ccccc1OCc1ccccc1	-13.2
O=C(NCCOCC(F)(F)C(F)F)c1cc(F)c(F)cc1Cl	-19.6
CCc1cccc(NC(=O)CSCc2cc(=O)[nH][nH]2)c1	6.33
O=C(c1ccc2oc(CCCc3ccccc3)nc2c1)N1CCCC1	13.6
Cc1cc(NC(=O)c2cccc(S(=O)(=O)N3CCCCC3)c2)no1	11.5
